# Results from PubChem BioAssay (Tox21).
# Inconclusive results, whose numbers are uncertain, are shown with a selection of clear calls. For some assays here: Potencies of inconclusive entries are doubtful fits and often do not repeat. Calls of active or inactive are those of the source. Unless noted, calls come from the whole dose curve; as a rule, active = well fitted curve in the direction sought with a large enough effect in the repeat runs; inconclusive = weak or mixed curves; inactive = no such curve, though single readings can be large; an effect the other way counts as inactive or inconclusive.
# Assays:
# [1] = target: Androgen receptor (Homo sapiens) (UniProt P10275); assay: qHTS assay to identify small molecule antagonists of the androgen receptor (AR) signaling pathway (AID 743035; active = well fitted inhibition curve with a large enough effect in the signal ratio in the repeat runs, not every such curve was filed as active; inconclusive = weak or mixed curves, or effect the other way; inactive = no such curve, though single readings can be large or run the other way; the % refers to the signal ratio; note: % is set by controls: 0 for no effect and ±100 for the full control effect); conditions: HEK293 AR-UAS-bla, R1881-stimulated, beta-lactamase FRET, 16 h; activity change, negative = inhibition: at 58.5 µM (top of the series) unless noted
# Chain of UniProt P10275 (P10275 whole entry, looked up): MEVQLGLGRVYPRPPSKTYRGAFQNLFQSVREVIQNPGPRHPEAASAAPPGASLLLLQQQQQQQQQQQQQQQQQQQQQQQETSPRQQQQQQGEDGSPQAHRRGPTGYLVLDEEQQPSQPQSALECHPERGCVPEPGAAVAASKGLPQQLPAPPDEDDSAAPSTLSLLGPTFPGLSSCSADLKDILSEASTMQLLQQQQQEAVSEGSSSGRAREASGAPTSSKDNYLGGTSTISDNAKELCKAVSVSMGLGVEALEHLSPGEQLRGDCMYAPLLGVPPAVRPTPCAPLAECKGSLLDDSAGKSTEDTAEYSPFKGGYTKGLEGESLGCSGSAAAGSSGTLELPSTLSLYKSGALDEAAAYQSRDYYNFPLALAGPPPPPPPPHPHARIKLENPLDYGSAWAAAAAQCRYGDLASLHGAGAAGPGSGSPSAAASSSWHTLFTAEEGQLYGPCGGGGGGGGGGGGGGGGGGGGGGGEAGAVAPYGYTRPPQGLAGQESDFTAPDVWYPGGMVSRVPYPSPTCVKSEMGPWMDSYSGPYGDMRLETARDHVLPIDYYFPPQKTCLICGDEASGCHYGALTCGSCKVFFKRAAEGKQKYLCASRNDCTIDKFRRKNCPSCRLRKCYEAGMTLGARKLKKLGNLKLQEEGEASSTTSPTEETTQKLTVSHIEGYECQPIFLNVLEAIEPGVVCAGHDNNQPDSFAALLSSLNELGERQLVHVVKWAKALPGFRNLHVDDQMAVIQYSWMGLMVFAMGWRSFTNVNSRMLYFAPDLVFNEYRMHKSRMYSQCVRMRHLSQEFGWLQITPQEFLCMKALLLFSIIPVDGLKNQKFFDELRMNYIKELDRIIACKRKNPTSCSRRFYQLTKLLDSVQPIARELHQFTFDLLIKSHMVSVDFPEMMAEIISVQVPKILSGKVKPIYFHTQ
# How it was run: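 Beta-lactamase FRET read (2 h RT incubation with LiveBLAzer B/G) following 16 h of compound plus R1881 treatment of AR-UAS-bla HEK293 cells, which had been pre-incubated 4 h at 37C.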
# [2] = qHTS assay to identify small molecule antagonists of the peroxisome proliferator-activated receptor gamma (PPARg) signaling pathway - cell viability counter screen (AID 743194); conditions: PPARg-bla HEK293H viability, CellTiter-Glo luminescence, 17 h, co-treated with 50 nM rosiglitazone; activity change, negative = cytotoxicity: at 62.6 µM (top of the series) unless noted; note: nearly all actives have a fitted effect of over 55% in size; note: potency is the fitted concentration of half-maximal effect
# How it was run: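 Viability was measured as CellTiter-Glo luminescence in GeneBLAzer PPARg UAS-bla HEK293H cells. These cells had been exposed 17 h at 37 C to compounds together with rosiglitazone at 50 nM final, with the beta-lactamase readout taken in the same wells.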
# [3] = qHTS assay to identify small molecule agonists of H2AX - cell viability counter screen (AID 1224847; calls by dose curve; note: nearly all actives have a fitted effect of over 30% in size; note: potency is the fitted concentration of half-maximal effect)
# How it was run: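 Cells plated first: CHO-K1, 1000 per well in 10% FBS medium, incubated overnight at 37C. Then 15-point compound titration added (final DMSO 0.76%) for 3 hr. Finally CellTiter-Glo added and luminescence read.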
# [4] = target: Peroxisome proliferator-activated receptor gamma (Homo sapiens) (UniProt P37231); assay: qHTS assay to identify small molecule agonists of the peroxisome proliferator-activated receptor gamma (PPARg) signaling pathway (AID 743094; active = well fitted activation curve with a large enough effect in the signal ratio in the repeat runs, not every such curve was filed as active; inconclusive = weak or mixed curves, or effect the other way; inactive = no such curve, though single readings can be large or run the other way; the % refers to the signal ratio; note: % is set by controls: 0 for no effect and ±100 for the full control effect); conditions: HEK293H PPARg-UAS-bla, beta-lactamase FRET ratio, 17 h; activation: at 57 µM (top of the series) unless noted
# Chain of UniProt P37231 (P37231 whole entry, looked up): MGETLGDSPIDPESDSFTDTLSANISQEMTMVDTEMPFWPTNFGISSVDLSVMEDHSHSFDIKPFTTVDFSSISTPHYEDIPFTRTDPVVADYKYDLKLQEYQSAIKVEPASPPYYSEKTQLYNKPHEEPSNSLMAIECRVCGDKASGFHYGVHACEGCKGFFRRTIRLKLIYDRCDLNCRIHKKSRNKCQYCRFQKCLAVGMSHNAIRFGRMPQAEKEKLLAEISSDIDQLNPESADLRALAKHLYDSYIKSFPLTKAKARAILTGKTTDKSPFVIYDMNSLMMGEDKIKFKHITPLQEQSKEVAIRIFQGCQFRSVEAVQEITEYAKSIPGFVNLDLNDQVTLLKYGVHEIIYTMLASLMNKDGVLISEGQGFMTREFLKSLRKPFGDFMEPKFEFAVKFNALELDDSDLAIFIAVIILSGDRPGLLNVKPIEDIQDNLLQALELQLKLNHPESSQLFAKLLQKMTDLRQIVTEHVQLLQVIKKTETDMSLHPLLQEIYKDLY
# How it was run: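 Compounds dissolved in DMSO were added to PPARg UAS-bla HEK293H cells for 17 h at 37C, and reporter expression was quantified by fluorescence intensity after 1 h with LiveBLAzer B/G FRET substrate.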
# [5] = qHTS assay to identify small molecule agonists of H2AX (AID 1224845; active = well fitted activation curve with a large enough effect in the signal ratio in the repeat runs, not every such curve was filed as active; inconclusive = weak or mixed curves; the % refers to the signal ratio; note: potency is the fitted concentration of half-maximal effect); conditions: CHO-K1 phospho-H2AX Ser139 HTRF, 3 h; activation (H2AX phosphorylation): at 154 µM (top of the series) unless noted
# How it was run: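 Phospho-H2AX Ser139 measured by HTRF (ex 320 nm; em 665 and 620 nm) after 24 hr antibody incubation. Compounds, 15 concentrations, 0.76% DMSO, were applied to CHO-K1 cells for 3hr at 37C before lysis.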
# [6] = qHTS RealTime-Glo MT Cell Viability Assay in HEK293 cells - 16 hour (AID 1224872); note: nearly all actives have a fitted effect of over 50% in size; note: potency is the fitted concentration of half-maximal effect
# How it was run: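 Homogeneous bioluminescent viability format in HEK293 cells (600 cells/well). Following 5 h at 37 C/5% CO2, 23 nL compound was pintooled; the signal was measured repeatedly during 40 h incubation.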
# [7] = Caspase-3/7 induction in HepG2 cells by small molecules, qHTS cell viability counter screen (AID 1346981); note: nearly all actives have a fitted effect of over 30% in size; note: potency is the fitted concentration of half-maximal effect
# How it was run: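 Viability determined by CellTiter-Fluor fluorescence in HepG2 wells also used for the luminescent Caspase-Glo 3/7 read. Compounds were present for 16 hr at 37 C, 5% CO2 before reagent addition.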
# [8] = qHTS assay to identify small molecule agonists of the vitamin D receptor (VDR) signaling pathway - cell viability counter screen (AID 743224); note: potency is the fitted concentration of half-maximal effect; nearly all actives have a fitted effect of over 50% in size
# How it was run: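 Plated VDR-bla cells (4 h, 37C) received compound, incubated 16 h, then LiveBLAzer substrate 2 h RT; CellTiter-Glo added afterwards, luminescence read at 30 min.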
# [9] = qHTS RealTime-Glo MT Cell Viability Assay in HEK293 cells - 40 hour (AID 1224874); conditions: RealTime-Glo luminescence; max response: stronger effect = lower value; note: nearly all actives have a fitted effect of over 50% in size; note: potency is the fitted concentration of half-maximal effect
# How it was run: (§1)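 Viable HEK293 cells reduce a cell-permeant prosubstrate; the product diffuses out and is consumed by NanoLuc in the medium to give light. Compounds went in after a 5 h incubation and plates were read over the treatment course.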
# [10] = qHTS assay to identify small molecule antagonists of the androgen receptor (AR) signaling pathway - cell viability counter screen (AID 743033; note: nearly all actives have a fitted effect of over 45% in size; note: potency is the fitted concentration of half-maximal effect); conditions: AR-bla HEK293 viability, CellTiter-Glo luminescence, 16 h; activity change, negative = cytotoxicity: at 58.5 µM (top of the series) unless noted
# [11] = target: Bile acid receptor (Homo sapiens) (UniProt Q96RI1); assay: qHTS assay to identify small molecule antagonists of the farnesoid-X-receptor (FXR) signaling pathway (AID 743217; active = well fitted inhibition curve with a large enough effect in the signal ratio in the repeat runs, not every such curve was filed as active; inconclusive = weak or mixed curves, or effect the other way; inactive = no such curve, though single readings can be large or run the other way; the % refers to the signal ratio; note: % is set by controls: 0 for no effect and ±100 for the full control effect); conditions: HEK293T FXR-UAS-bla, beta-lactamase ratio, CDCA-stimulated, 16 h; activity change, negative = inhibition: at 62.6 µM (top of the series) unless noted
# Chain of UniProt Q96RI1 (Q96RI1 whole entry, looked up): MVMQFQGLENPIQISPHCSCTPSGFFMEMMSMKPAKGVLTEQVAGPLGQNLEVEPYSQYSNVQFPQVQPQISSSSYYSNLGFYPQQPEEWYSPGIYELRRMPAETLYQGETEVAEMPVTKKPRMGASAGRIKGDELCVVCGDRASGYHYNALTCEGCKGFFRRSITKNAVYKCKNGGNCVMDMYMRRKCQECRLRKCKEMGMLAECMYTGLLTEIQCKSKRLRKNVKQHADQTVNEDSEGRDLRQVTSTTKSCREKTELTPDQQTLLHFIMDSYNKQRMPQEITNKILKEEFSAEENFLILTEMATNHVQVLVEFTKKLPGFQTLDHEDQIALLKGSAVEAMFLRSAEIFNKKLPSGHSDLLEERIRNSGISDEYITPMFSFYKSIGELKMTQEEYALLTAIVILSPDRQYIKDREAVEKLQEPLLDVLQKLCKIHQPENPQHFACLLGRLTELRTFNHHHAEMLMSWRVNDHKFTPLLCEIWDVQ
# How it was run: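 GeneBLAzer FXR-UAS-bla HEK 293T, CDCA-stimulated (50 uM final). Compound treatment 16 h, 37 °C. Detection: beta-lactamase cleavage of B/G FRET substrate, fluorescence.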
# [12] = qHTS assay to identify small molecule agonists of the androgen receptor (AR) signaling pathway in the presence of an antagonist - cell viability counter screen (AID 1259379); note: nearly all actives have a fitted effect of over 25% in size; note: potency is the fitted concentration of half-maximal effect
# How it was run: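 Seed MDA-kb2 at 3,000 cells/well; incubate 5 hr, 37C, 0% CO2. Add nilutamide to 3.0uM final, then pin compounds at 15 concentrations. Incubate 16 hr. Add CellTiter-Fluor at 15 hr, read fluorescence after 1 hr.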
# [13] = qHTS assay to identify small molecule antagonists of the thyroid receptor (TR) signaling pathway (AID 743065); note: % is set by controls: 0 for no effect and ±100 for the full control effect; nearly all actives have a fitted effect of over 55% in size
# How it was run: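 Antagonism measured as loss of luciferase signal in GH3 cells stably carrying a TRE-luciferase reporter, co-treated with compound and T3 (1 nM final) for 23.5 h at 37 C. Viability was read in the same well by CellTiter-Fluor.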
# [14] = target: Thyrotropin receptor (Homo sapiens) (UniProt P16473); assay: qHTS assay to identify small molecule antagonists of the thyroid stimulating hormone receptor (TSHR) signaling pathway (AID 1259385; calls by dose curve; note: nearly all actives have a fitted effect of over 20% in size; note: potency is the fitted concentration of half-maximal effect); conditions: TSHR-HEK293 cAMP HTRF, TSH-stimulated antagonist mode; activity change, negative = inhibition: at 92.4 µM (top of the series) unless noted
# Chain of UniProt P16473 (P16473 whole entry, looked up): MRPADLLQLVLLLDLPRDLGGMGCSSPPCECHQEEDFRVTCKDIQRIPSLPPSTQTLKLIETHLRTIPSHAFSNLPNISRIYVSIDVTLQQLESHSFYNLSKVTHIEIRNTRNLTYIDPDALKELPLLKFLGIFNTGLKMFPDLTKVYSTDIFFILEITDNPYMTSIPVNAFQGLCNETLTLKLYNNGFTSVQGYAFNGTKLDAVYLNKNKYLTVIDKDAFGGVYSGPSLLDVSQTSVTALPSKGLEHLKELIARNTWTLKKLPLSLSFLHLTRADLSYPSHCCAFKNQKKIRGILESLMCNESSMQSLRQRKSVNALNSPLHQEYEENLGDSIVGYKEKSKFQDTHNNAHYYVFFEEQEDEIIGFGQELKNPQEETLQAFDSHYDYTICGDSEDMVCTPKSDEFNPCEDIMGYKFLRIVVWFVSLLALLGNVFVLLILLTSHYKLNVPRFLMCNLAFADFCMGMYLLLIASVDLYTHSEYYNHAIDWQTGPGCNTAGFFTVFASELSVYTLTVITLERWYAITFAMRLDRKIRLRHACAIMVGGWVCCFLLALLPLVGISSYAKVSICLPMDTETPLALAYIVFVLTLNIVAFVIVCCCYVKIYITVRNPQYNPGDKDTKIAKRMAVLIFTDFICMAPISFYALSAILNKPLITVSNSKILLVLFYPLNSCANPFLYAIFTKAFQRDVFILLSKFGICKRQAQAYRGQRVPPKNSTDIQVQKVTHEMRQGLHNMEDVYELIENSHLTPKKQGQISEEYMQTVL
# How it was run: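 Antagonist mode: compound-treated TSHR-expressing HEK293 cells were stimulated with 1.5 ng/mL TSH (final) in presence of Ro20-1724 for 30 min at RT. HTRF cAMP detection after 1 h; each compound tested at 15 concentrations, triplicate.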
# [15] = qHTS assay to identify small molecule antagonists of the progesterone receptor (PR) signaling pathway - cell viability counter screen (AID 1346798); note: nearly all actives have a fitted effect of over 50% in size; note: potency is the fitted concentration of half-maximal effect
# How it was run: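 HEK293T PR-UAS-bla, 2% charcoal-stripped FBS; 4 hr pre-plate; cpd + R5020, 16 h 37C; LiveBLAzer read first; then CellTiter-Glo 30 min RT, luminescence.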
# [16] = target: Vitamin D3 receptor (Homo sapiens) (UniProt P11473); assay: qHTS assay to identify small molecule agonists of the vitamin D receptor (VDR) signaling pathway (AID 743222; calls by dose curve; note: % is set by controls: 0 for no effect and ±100 for the full control effect); conditions: HEK293T VDR-UAS-bla, beta-lactamase FRET ratio, 16 h; activation: at 63.5 µM (top of the series) unless noted
# Chain of UniProt P11473 (P11473 whole entry, looked up): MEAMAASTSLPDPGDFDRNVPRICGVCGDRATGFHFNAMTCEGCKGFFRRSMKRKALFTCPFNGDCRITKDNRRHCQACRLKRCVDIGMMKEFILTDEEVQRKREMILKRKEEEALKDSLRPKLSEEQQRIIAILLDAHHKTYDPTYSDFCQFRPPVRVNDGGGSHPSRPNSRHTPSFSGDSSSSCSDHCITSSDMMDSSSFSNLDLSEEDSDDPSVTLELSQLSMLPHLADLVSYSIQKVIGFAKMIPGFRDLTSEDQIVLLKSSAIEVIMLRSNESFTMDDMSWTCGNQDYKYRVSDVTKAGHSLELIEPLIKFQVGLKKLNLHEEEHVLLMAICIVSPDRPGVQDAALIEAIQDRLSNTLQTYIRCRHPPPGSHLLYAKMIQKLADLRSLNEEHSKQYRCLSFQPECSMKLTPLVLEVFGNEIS
# How it was run: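 In VDR-bla cells, compound-induced beta-lactamase expression is quantified by FRET substrate fluorescence. Treatment lasts 16 h at 37C; substrate develops 2 h at room temperature.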
# [17] = A CellTox Green Cytotoxicity Assay to monitor cytotoxicity in HepG2 cells - 40 hour (AID 1224879); note: potency is the fitted concentration of half-maximal effect; nearly all actives have a fitted effect of over 40% in size
# How it was run: (§2)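 Using 1536-well format, dye-containing HepG2 suspension was seeded, allowed 5 h at 37 C/5% CO2, dosed by pintool with compounds, positive and negative controls, and imaged for fluorescence across 40 h.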
# [18] = qHTS RealTime-Glo MT Cell Viability Assay in HEK293 cells - 8 hour (AID 1224887); note: nearly all actives have a fitted effect of over 50% in size; note: potency is the fitted concentration of half-maximal effect
# How it was run: as §1
# [19] = A CellTox Green Cytotoxicity Assay to monitor cytotoxicity in HepG2 cells - 24 hour (AID 1224878); note: nearly all actives have a fitted effect of over 45% in size; note: potency is the fitted concentration of half-maximal effect
# How it was run: as §2
# Tags give direction and shape of the fitted curve or compound fluorescence and quenching.
compound,measurement,setting,value
O=C(NCCc1c[nH]c2ccccc12)c1cccnc1,"activity change, negative = inhibition",[1],inconclusive: -11.2%
same,Potency,[2],inactive
same,Potency,[3],inactive
Cc1cc2cc3c(C)cc(=O)oc3c(C)c2o1,Potency,[4],inactive
same,Potency,[5],"inconclusive: 49.2 µM [fluorescent, partial curve]"
same,Potency,[6],inactive
CC(C)OC(=O)COc1ccc(Cl)cc1Cl,Potency,[7],inactive
CC12CCC(C1)C(C)(C)C2O (stereo not given),Potency,[2],"inconclusive: 0.11 µM [cytotoxic, full curve, poor fit]"
same,Potency,[8],"inconclusive: 13.8 µM [cytotoxic, full curve]"
same,Potency,[9],"inconclusive: 43.6 µM [cytotoxic, partial curve]"
same,Potency,[7],inactive
OC[C@H]1O[C@@H](O[C@H]2[C@H](O)[C@@H](O)[C@H](O)O[C@@H]2CO)[C@H](O)[C@@H](O)[C@H]1O,Potency,[10],inactive
same,Potency,[11],inactive
same,Potency,[3],inactive
CC(=O)CC(C)(C)O,"activity change, negative = inhibition",[1],inconclusive: 36.6% [at 78.9 µM]
same,"activity change, negative = inhibition",[11],inconclusive: -13.5% [at 81.1 µM]
same,Potency,[5],"inconclusive: 51.3 µM [falling, partial curve]"
same,Potency,[3],inactive
Nc1ncnc(Nc2ccccc2)n1,Potency,[10],inactive
same,Potency,[12],inactive
CCn1cc(C(=O)O)c(=O)c2cnc(N3CCCC3)nc21,Potency,[13],inactive
O=C1c2ccccc2C(=O)c2cc(O)ccc21,Potency,[5],"inconclusive: 50.5 µM [cytotoxic, partial curve]"
same,Potency,[6],"inconclusive: 55 µM [cytotoxic, single point]"
same,Potency,[9],"inconclusive: 55 µM [cytotoxic, single point]"
same,Potency,[12],inconclusive: 30.7 µM [cytotoxic]
same,Potency,[14],"inconclusive: 21.7 µM [falling, full curve]"
same,Potency,[15],"inconclusive: 77 µM [rising, single point]"
same,Potency,[7],"inconclusive: 34.4 µM [cytotoxic, partial curve]"
Brc1ccc(Br)c(Br)c1,Potency,[4],inactive
same,Potency,[16],inactive
same,Potency,[8],"inconclusive: 13.8 µM [cytotoxic, partial curve]"
same,Potency,[6],inactive
same,Potency,[17],"inconclusive: 49.3 µM [activator, single point]"
same,Potency,[18],"inconclusive: 49 µM [cytotoxic, partial curve, poor fit]"
same,Potency,[14],"inconclusive: 77 µM [falling, partial curve, poor fit]"
CN(C1CCCCC1)S(=O)(=O)c1ccccc1N,Potency,[10],"inconclusive: 4.36 µM [cytotoxic, full curve, poor fit]"
same,Potency,[11],inactive
same,Potency,[6],"inconclusive: 30.9 µM [cytotoxic, partial curve]"
same,Potency,[9],"inconclusive: 34.7 µM [cytotoxic, partial curve, poor fit]"
same,Potency,[18],inactive
O=C(O)CCSSCCC(=O)O,Potency,[13],inactive
CC(C)CCCC(C)N (stereo not given),Potency,[8],"inconclusive: 13.3 µM [rising, partial curve, poor fit]"
COC(OC)(C(=O)c1ccccc1)c1ccccc1,Potency,[4],inactive
same,Potency,[3],"inconclusive: 1.42 µM [cytotoxic, single point]"
O=C(O)C(=O)Cc1ccccc1,activation,[4],inconclusive: 0.838%
same,Potency,[2],"inconclusive: 0.219 µM [rising, full curve, poor fit]"
same,max response,[9],inactive: 14.4%
same,Potency,[12],inactive
same,Potency,[15],inactive
CCCCCCCCCC(C)=O,Potency,[1],inactive
same,Potency,[5],inactive
CCOc1ccc(O)cc1,activation,[4],inconclusive: -14.4%
same,Potency,[16],inactive
same,Potency,[8],"inconclusive: 24.5 µM [cytotoxic, full curve]"
same,Potency,[5],"inconclusive: 89.8 µM [activator, partial curve]"
same,Potency,[6],"inconclusive: 11 µM [cytotoxic, full curve]"
same,Potency,[18],"inconclusive: 11 µM [cytotoxic, full curve]"
O=S(=O)(O)c1ccc2cc(O)c(S(=O)(=O)O)cc2c1,Potency,[19],inactive
CC(C)CCOC(=O)c1ccc(N(C)C)cc1,Potency,[17],active: 1.9 µM
same,"activity change, negative = inhibition",[14],inconclusive: -14.2% [at 42.5 µM]
Cc1cccc2nccnc12,Potency,[3],"inconclusive: 1.79 µM [cytotoxic, single point]"
CC(C)(C)c1ccc(N)cc1,Potency,[19],"inconclusive: 54.9 µM [activator, single point]"
Cc1ccccc1N=C(N)N=C(N)N,Potency,[10],inactive
same,Potency,[3],"inconclusive: 1.79 µM [cytotoxic, single point]"
same,Potency,[7],inactive
